From PubChem BioAssay AID1347073 (National Center for Advancing Translational Sciences (NCATS), 2019)
About 200 (0.44%) of roughly 45,000 compounds were called active. Inconclusive results (about 7%) are left out. Calls follow the shape of the dose curve; as a rule, active = well fitted activation curve with a large enough effect; inconclusive = small, poorly fitted or top-dose-only effect; inactive = no such curve, though single readings can be large or run the other way. This is one part of the list.

experiment: qHTS of TDP-43 Inhibitors: NCGC Sytravon Library Screen; conditions: yeast TDP-43 toxicity rescue, BacTiter-Glo growth, 24 h; series mostly up to 46.1 µM; growth rescue (activation): at the top concentration; also: 0% is about no effect; nearly all actives have a fitted effect of over 55% in size
Outline: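 TDP-43-expressing yeast, pregrown in raffinose, seeded at OD600 0.02 in galactose medium with compound for 24 hr at 30 deg C. Growth read by BacTiter-Glo luminescence, so rescue of toxicity appears as activation.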

| SMILES | growth rescue (activation) |
| --- | --- |
| COc1ccc(S(=O)(=O)N2CCOCC2)cc1Br | inactive: 22.4% |
| NS(=O)(=O)c1cc(C(=O)NC2CCSc3ccccc32)ccc1Cl (configuration not stated) | inactive: 23.6% |
| COc1ccc(NC(=O)COc2ccc3c(c2)OCO3)cc1 | inactive: -19.8% |
| CN(CC(=O)Nc1cccc(Cl)c1)C1=NS(=O)(=O)c2ccccc21 | inactive: -0.816% |
| CC(C)Oc1ccc(/C(O)=C2/C(=O)C(=O)N(CCN(C)C)C2c2cccs2)cc1 (configuration not stated) | inactive: 26.1% |
| Cc1csc(SCC(=O)N2CCN(S(=O)(=O)c3ccccc3)CC2)n1 | inactive: -7.56% |
| COc1cc(CN(C2CCCCC2C)S(=O)(=O)c2ccc(S(=O)(=O)NC3CC3)cc2)cc(OC)c1OC (configuration not stated) | inactive: 6.1% |
| CSc1nc2sc3c(c2c(=O)[nH]1)CCc1ccccc1-3 | inactive: 14.5% |
| O=C(c1cccc(S(=O)(=O)N2CCCC2)c1)N(Cc1ccco1)C1CCS(=O)(=O)C1 (configuration not stated) | inactive: 2.24% |
| COc1cccc(C(=O)Nc2ccc3c(c2)OCO3)c1OC | inactive: 18.5% |
| CCc1nnc(N/N=C/c2ccc(-c3ccc([N+](=O)[O-])cc3)o2)n1N | inactive: 25.9% |
| O=C(O)c1cccc(NC(=S)N/N=C/c2ccccc2OCc2ccc(Br)cc2)c1 | inactive: 19.8% |
| Cc1nc(NC(=O)CSc2cc(C)c3ccccc3n2)c(Cl)cc1Cl | inactive: -5.9% |
| CN(CC(=O)NC(=O)Nc1ccccc1F)Cc1ccccc1 | inactive: -6.54% |
| O=C(c1cccc([N+](=O)[O-])c1)c1ccc2c(c1)OCCOCCOCCO2 | inactive: 19.4% |
| COc1ccc(S(=O)(=O)N2CCN(C(=O)Cc3ccsc3)CC2)cc1 | inactive: 21.8% |
| COc1ccc(Br)cc1C(=O)Nc1cccc2ncccc12 | inactive: 2.73% |
| CC(C)c1ccc(NC(=S)NN2C(C)CCCC2C)cc1 (configuration not stated) | inactive: 7.92% |
| COC(=O)c1c(C(=O)OC)c2cc(C)ccn2c1Cl | inactive: 20.7% |
| Cc1cccc(N2C(=O)C(CC(=O)Nc3cccc(F)c3)N(CCc3ccncc3)C2=O)c1 (configuration not stated) | inactive: 3.4% |
| Cc1ccc(CN(C)C(=O)CC2C(=O)NCCN2CC2CCCCC2)cc1 (configuration not stated) | inactive: 1.63% |
| CC1CCN(S(=O)(=O)c2ccc(NC(=O)C3CC3)cc2)CC1 | inactive: 31% |
| COc1cc(/C=N/NC(=O)c2ccncc2)ccc1OC(=O)c1cc(OC)c(OC)c(OC)c1 | inactive: 13.9% |

| SMILES | growth rescue (activation) |
| --- | --- |
| COc1ccccc1NC(=O)N1CCCC1 | inactive: -8.9% |
| CCOc1ncccc1C(=O)NCC(c1ccco1)N1CCCCC1 (configuration not stated) | inactive: 23.3% |
| COc1cccc(CCNC(=O)CC2C(=O)NCCN2Cc2ccc(Cl)c(F)c2)c1 (configuration not stated) | inactive: 8.5% |
| COc1ccc(NC(=O)CCC(=O)N(Cc2ccc(OC)c(OC)c2)c2nccs2)cc1 | inactive: -2.54% |
| CC1CN(C(=O)COC(=O)c2ccccc2O)CC(C)O1 (configuration not stated) | inactive: -9.19% |
| Cc1ccc(NC(=O)c2ccc([N+](=O)[O-])cc2)cc1S(=O)(=O)N(C)C | inactive: 8.09% |
| COC(=O)c1ccc(OC(=O)c2cccnc2SC)cc1 | inactive: 8.83% |
| COc1ccc(NC(=O)c2ccc3c(c2)C(=O)N(Cc2ccncc2)C3=O)cc1S(N)(=O)=O | inactive: 4.64% |
| COc1ccc(OC)c(NC(=O)c2sc3ncnc(N4CCN(c5ccccn5)CC4)c3c2C)c1 | inactive: 8.84% |
| Cc1ccc(NC(=O)C(C)Sc2n[nH]c(CNc3ccccc3)n2)cc1 (configuration not stated) | inactive: -19.1% |
| COc1ccc(/C=N/NC(=O)c2cccc(NC(=O)c3ccc(F)cc3)c2)c(C(=O)O)c1OC | inactive: 2.89% |
| COc1ccccc1CN1CCNC(=O)C1CC(=O)NCCc1cnccn1 (configuration not stated) | inactive: -5.91% |
| COc1ccc(C)cc1S(=O)(=O)N(CC(=O)Nc1cc([N+](=O)[O-])ccc1C)c1ccc(C)c(C)c1 | inactive: 7.48% |
| S=C(NCc1ccco1)NCC1CCCO1 (configuration not stated) | inactive: 14.2% |
| O=C(CSCc1ccc(Br)cc1)NCc1ccccn1 | inactive: 9.63% |
| Nc1c(C(=O)NCC2CCCO2)sc2nc3c(c(-c4ccco4)c12)CC/C3=C\c1ccco1 (configuration not stated) | inactive: 5.88% |
| COc1ccc(N(C(=O)c2snc(C(N)=O)c2N)C(C(=O)NCC2CCCO2)c2ccc3ncccc3c2)cc1OC (configuration not stated) | inactive: -7.43% |
| CCN(CC)C(=O)CCCSc1nnc(Nc2ccccc2F)s1 | inactive: -26.6% |
| CCn1c(COc2c(C)cccc2C)nnc1SCc1nc2ccccc2c(=O)[nH]1 | inactive: 11.5% |
| Nc1nc2ccc(C(=O)NCCOC(=O)C3CCCCC3)cc2s1 | inactive: -4.31% |
| COc1ccc(CN2CCN(CCc3ccccc3)C(CCO)C2)cc1Cn1cncn1 (configuration not stated) | inactive: -0.996% |
| Cc1ccc(C(C(=O)NC2CCCCC2)N2CCCC2)cc1 (configuration not stated) | inactive: 19.9% |
| Cc1ccc(NC(=O)CC(=O)c2ccccc2)cc1C | inactive: 22.4% |

| SMILES | growth rescue (activation) |
| --- | --- |
| O=C(Cn1c(COc2ccccc2)nc2ccccc21)Nc1cc(Cl)cc(Cl)c1 | inactive: 12.9% |
| Cc1ccc(C)c(S(=O)(=O)Nc2ccc3oc(C)c(C(=O)O)c3c2)c1 | inactive: 25.2% |
| CC(O)CNc1ccc(-c2nn(C)c(=O)c3ccccc23)cc1[N+](=O)[O-] (configuration not stated) | inactive: 13.7% |
| COc1cccc(NC(=O)c2ccc(-n3cnnn3)cc2)c1 | inactive: 15% |
| CN(CC(=O)Nc1ccc2c(c1)OCO2)S(=O)(=O)c1ccc(F)cc1 | inactive: 18.3% |
| Cc1ccc(-c2nnc(OCc3nc4ccccc4n3C)c3ccccc23)cc1 | inactive: 5.22% |
| COc1ccc(OC)c(S(=O)(=O)N2CCC(C(=O)NC3CC3)CC2)c1 | inactive: -3.42% |
| S=c1[nH]nc(COc2ccccc2)n1-c1ccc(Cl)cc1 | inactive: -12.4% |
| COc1ccccc1-c1nnc(SCC(=O)c2ccc(C3CCCCC3)cc2)n1Cc1ccco1 | inactive: 23.1% |
| COc1ccc(C(=O)O)cc1S(=O)(=O)Nc1ccc(C)cc1 | inactive: 0.952% |
| Cc1cccc(OCC(=O)OCC(=O)Nc2sccc2C(N)=O)c1 | inactive: -0.0431% |
| O=C(/C=C/c1ccc(Br)cc1)NCc1cccs1 | inactive: 23.7% |
| O=C(CCC(=O)Nc1ccc(Br)cc1)N/N=C/c1cc([N+](=O)[O-])ccc1O | inactive: 4.99% |
| Cc1cc(OCc2cc(C(=O)N(C)C3CCOCC3)no2)cc(C)c1Cl | inactive: 23.3% |
| CC(C)N(c1ccccc1)c1ccc(NC(=O)COC(=O)CCN2C(=O)c3cccc([N+](=O)[O-])c3C2=O)cc1 | inactive: -1.3% |
| CCNCC(=O)N1c2ccccc2CCc2ccc(NC(=O)OC(C)C)cc21 | inactive: 2.88% |
| Cc1ccc(C(=O)N(CCN2CCCCC2)CC2CCCN(C3CCCC3)C2)s1 (configuration not stated) | inactive: -12.4% |
| CCN(CC)S(=O)(=O)c1ccc(N2CCOCC2)c(NC(=O)C2CCCC2)c1 | inactive: 10.4% |
| C[C@@H]1CN(Cc2nc(-c3ccc(Cl)cc3)no2)C[C@H](C)O1 | inactive: 9.26% |
| Cc1c(NC(=O)NC2CCCCC2)cccc1[N+](=O)[O-] | inactive: -11.3% |
| CC(=O)N1CCN(C(=O)COc2ccc(N(C)S(=O)(=O)c3cccs3)cc2)CC1 | inactive: -6.83% |
